Among all 350,000 compounds or so, about 9,900 (2.8%) were called active. The inconclusive results got no clear call from the source; some entries with a clear call stand among them for comparison. Calls come from the whole dose curve; as a rule, active = well fitted activation curve with a large enough effect; inconclusive = small, poorly fitted or top-dose-only effect; inactive = no such curve, though single readings can be large or run the other way. No potency is given beside an inconclusive call; the fits are too rough.
Experiment: A quantitative high throughput screen for small molecules that induce DNA re-replication in MCF 10a normal breast cells. Note: nearly all actives have a fitted effect of over 50% in size.
Details: MCF 10A DNA re-replication, Hoechst nuclear intensity, 48 h; series mostly up to 46.1 µM
Potency is the fitted concentration of half-maximal effect; tags give direction and shape of the fitted curve.

Which Potency does the source give for `COc1cc2c(cc1NC(=O)c1cc(-c3ccncc3)nc3ccccc13)oc1ccccc12` here?
Its Potency is inconclusive [activator, full curve].

Which Potency does the source give for `C=CCN1C(=O)/C(=C2/Sc3ccccc3N2CC)SC1=S` here?
The Potency was inconclusive [activator, partial curve, poor fit].

With `CCCC(=O)Nc1ccc(C(=O)Nc2cc(C(F)(F)F)ccc2Cl)cc1` as the compound, how does the Potency read?
The Potency was inconclusive [activator, single point].

With `Cc1ccc(Cl)cc1Nc1nc(-c2cccnc2)cs1` as the compound, how does the Potency read?
Its Potency is inconclusive [activator, single point].

For `Cc1cccc(C(=O)OCC(=O)NC(C)CCc2ccccc2)c1O` (centres undefined), which Potency is on record?
Its Potency is inconclusive [activator, single point].

With `Cc1ccc(SCc2nc(-c3ccncc3)no2)cc1` as the compound, how does the Potency read?
Its Potency is active: 16.4 µM.

For `Cc1c(C(=O)c2ccccc2)c2ccccn2c1CCc1ccccn1`, which Potency is on record?
Its Potency is “inactive”.

For `COCC(C)NC(=O)c1ccc2nc(-c3ccccc3)c(-c3ccccc3)nc2c1` (centres undefined), which Potency is on record?
The Potency was “inactive”.

For `COc1ccc(CN2CCC(Oc3ccc(C(=O)N4CCCCC4)cc3)CC2)cc1C`, which Potency is on record?
The Potency was “inactive”.

For `CC(C)CC1NC(C(=O)O)Cc2c1[nH]c1ccccc21` (centres undefined), which Potency is on record?
The Potency was inconclusive [activator, single point].

For `CSc1ccccc1NC(=O)Nc1cccc(Cl)c1`, which Potency is on record?
The Potency was inconclusive [activator, partial curve, poor fit].

For `Cc1cccc(-c2nc(C#N)c(NC3CCCCC3)o2)c1`, which Potency is on record?
The Potency was inconclusive [activator, partial curve, poor fit].

For `COc1ccc(C)cc1Nc1c2c(nc3ccccc13)CCC2`, which Potency is on record?
Its Potency is active: 1.64 µM.

Which Potency does the source give for `O=C(NCC(c1ccc(F)cc1)N1CCOCC1)c1ccc(-c2ccccc2)cc1` (centres undefined) here?
Its Potency is inconclusive [activator, single point].

For `CN(C)c1ccc(-c2cc(O)c3ncccc3c2)cc1`, which Potency is on record?
The Potency was “inactive”.

With `OCc1cn(-c2ccccc2)nc1-c1ccc2c(c1)OCCO2` as the compound, how does the Potency read?
The Potency was inconclusive [activator, full curve, poor fit].

With `CCc1nc2oc3ccccc3c(=O)c2c(=O)n1CCOC` as the compound, how does the Potency read?
The Potency was “inactive”.

Which Potency does the source give for `COCc1c(Br)c(C)nc(OCC(=O)N/N=C/c2ccc(C)o2)c1C#N` here?
The Potency was active: 0.731 µM.

Which Potency does the source give for `COc1cccc(NC(=O)c2ccccc2-c2ccccc2)c1` here?
Its Potency is inconclusive [activator, partial curve, poor fit].

With `O=C(/C=C/c1ccc(Cl)cc1Cl)NCCSc1ccccc1` as the compound, how does the Potency read?
The Potency was inconclusive [activator, single point].

With `Cc1c(CCO)c(=O)n(C)n1C(=O)c1ccc(Cl)cc1` as the compound, how does the Potency read?
Its Potency is “inactive”.

For `CCCCOCCCNc1ncnc2c1[nH]c1ccccc12`, which Potency is on record?
The Potency was inconclusive [activator, single point].

Which Potency does the source give for `COC(=O)c1cc(-c2ccccc2)sc1NC(=O)CN1C(=O)c2ccccc2C1=O` here?
The Potency was “inactive”.

For `CC1Sc2ccc(S(=O)(=O)N3CCC(C(=O)Nc4cccc(Cl)c4)CC3)cc2NC1=O` (centres undefined), which Potency is on record?
Its Potency is “inactive”.

With `COc1ccc(CN2CCN(Cc3c[nH]c4ccccc34)CC2CCO)cc1C` (centres undefined) as the compound, how does the Potency read?
Its Potency is inconclusive [activator, single point].

Which Potency does the source give for `COC(=O)c1c(C)oc2ccc(N(C(=O)Oc3ccccc3)S(=O)(=O)c3ccc(Cl)c([N+](=O)[O-])c3)cc12` here?
Its Potency is inconclusive [activator, full curve].

With `Cc1ccc2cc(CN(CC3CCCO3)C(=S)Nc3ccccc3)c(=O)[nH]c2c1C` (centres undefined) as the compound, how does the Potency read?
The Potency was active: 2.59 µM.

Which Potency does the source give for `O=C(CSc1nnc(C2CCCCC2)o1)N1CCCCC1` here?
The Potency was inconclusive [activator, single point].

With `COc1cc(/C=N/NC(=O)c2cc(-c3cccc(OC(C)C)c3)nc3ccccc23)ccc1O` as the compound, how does the Potency read?
The Potency was inconclusive [activator, partial curve, poor fit].

For `COc1ccc(/C=N/n2c(C3CCCCC3)n[nH]c2=S)c(OC)c1`, which Potency is on record?
The Potency was “inactive”.

With `Cc1c(CCC(=O)NC2CC2)c(=O)oc2cc(O)ccc12` as the compound, how does the Potency read?
The Potency was inconclusive [activator, full curve, poor fit].

With `CCOc1ccccc1N(CC(=O)Nc1cc(OC)ccc1OC)S(=O)(=O)c1ccccc1` as the compound, how does the Potency read?
Its Potency is inconclusive [activator, single point].

For `Cc1ccc(OCCOC(=O)c2c(-c3ccccc3)noc2C)cc1`, which Potency is on record?
Its Potency is inconclusive [activator, single point].

For `COc1ncccc1C(=O)NC1CCCc2c1cnn2-c1cc(C)cc(C)c1` (centres undefined), which Potency is on record?
Its Potency is “inactive”.

With `Cc1ccc(S(=O)(=O)N2CCC(C(=O)NNC(=O)c3ccccc3O)CC2)cc1` as the compound, how does the Potency read?
The Potency was inconclusive [activator, single point].

Which Potency does the source give for `Cc1cccc(Nc2ncnc3ccccc23)c1` here?
The Potency was inconclusive [activator, full curve].

With `O=C(CNC(=O)c1ccccc1F)NCc1ccccn1` as the compound, how does the Potency read?
Its Potency is “inactive”.

For `Cc1cccnc1Nc1nc(-c2ccccn2)cs1`, which Potency is on record?
The Potency was active: 9.2 µM.

For `CCOC(=O)c1[nH]ncc1CN1CCCC(C(=O)c2cccc(OC(C)C)c2)C1` (centres undefined), which Potency is on record?
The Potency was “inactive”.

With `Cc1c(C(=O)N2CCCCC2)c(S(=O)(=O)N2CCN(c3ccc(F)cc3)CC2)c(C)n1C` as the compound, how does the Potency read?
Its Potency is inconclusive [activator, partial curve, poor fit].

With `Brc1ccc(-c2nnc3n2-c2ccccc2CC3)cc1` as the compound, how does the Potency read?
Its Potency is inconclusive [activator, partial curve].

For `CC(C)c1cc(-c2cc(-c3ccccc3)on2)nc(NC2CCCC2)n1`, which Potency is on record?
The Potency was inconclusive [activator, partial curve, poor fit].

With `O=C(N/N=C\c1cccc(Cl)c1)c1n[nH]c2c1CCCC2` as the compound, how does the Potency read?
The Potency was inconclusive [activator, single point].

With `Nc1ncc(-c2ccccc2)n1CC1CCCO1` (centres undefined) as the compound, how does the Potency read?
Its Potency is inconclusive [activator, partial curve].

For `COc1cccc(C2NC(C)(C(=O)O)C3C(=O)N(C(C)C)C(=O)C23)c1O` (centres undefined), which Potency is on record?
Its Potency is inconclusive [activator, partial curve].

For `Cc1cc(/C=C2\SC(=S)N(Cc3ccco3)C2=O)c(C)n1-c1ccccc1`, which Potency is on record?
Its Potency is active: 5.8 µM.

For `CN(C)C(CNC(=O)c1ccc2nccnc2c1)c1ccco1` (centres undefined), which Potency is on record?
Its Potency is “inactive”.

With `C=CCSc1nnc(NC(=O)CSCc2c(C)noc2C)s1` as the compound, how does the Potency read?
Its Potency is inconclusive [activator, partial curve, poor fit].

With `O=C(O)Cc1sc(Nc2ccccc2)nc1-c1cccs1` as the compound, how does the Potency read?
Its Potency is active: 23.1 µM.

With `COC(=O)C1C(O)=C(C(C)=Nc2cccc3ccccc23)C(=O)CC1(C)C` (centres undefined) as the compound, how does the Potency read?
Its Potency is “inactive”.

For `CC(OC(=O)c1ccccc1C(=O)N(C)Cc1ccccc1)C(=O)NC1(C#N)CCCCC1` (centres undefined), which Potency is on record?
The Potency was “inactive”.

For `COc1ccc(CC(=O)Nc2ccc(/C(C)=N\NC(=O)c3ccc(Br)o3)cc2)cc1`, which Potency is on record?
The Potency was inconclusive [activator, single point].

With `C=CCn1c(SCc2csc(-c3ccc(C)cc3)n2)nnc1-c1ccccc1OC` as the compound, how does the Potency read?
Its Potency is inconclusive [activator, single point].

Which Potency does the source give for `O=C1OCCN1C(=O)[C@H]1[C@H](c2ccccc2)C(c2ccc(F)cc2)=NN1c1ccccc1` here?
Its Potency is inconclusive [activator, partial curve, poor fit].

For `CCOC(=O)c1c(C)c(C(=O)NCCOC)c(C)n1CC`, which Potency is on record?
The Potency was “inactive”.

With `COc1ccc(/C=C2/CCc3ccccc3C2=O)cc1CN1CCOCC1` as the compound, how does the Potency read?
The Potency was inconclusive [activator, partial curve, poor fit].

For `NC(N)=NS(=O)(=O)c1ccc(NC(=S)NC(=O)/C=C/c2ccccc2)cc1`, which Potency is on record?
Its Potency is inconclusive [activator, single point].

Which Potency does the source give for `O=C(Nc1ccccc1C(=O)NCC1CCCO1)c1ccccc1` (centres undefined) here?
Its Potency is “inactive”.

With `O=C(NCCCSc1ccccc1)c1cnc(Cl)c(Cl)c1` as the compound, how does the Potency read?
Its Potency is “inactive”.

For `O=c1c(Cl)c(Cl)cnn1Cc1nnc(-c2ccccc2Br)o1`, which Potency is on record?
The Potency was active: 3.26 µM.

With `CSc1nc(N)nc(SCC(=O)OC(C)C)c1C#N` as the compound, how does the Potency read?
The Potency was “inactive”.

With `COc1cc(/C=N/NC(=O)c2nnn(-c3nonc3N)c2C(C)C)ccc1OCc1ccc(F)cc1` as the compound, how does the Potency read?
Its Potency is inconclusive [activator, single point].

For `CCOc1ccc(OCC(=O)OC(C)C(=O)NC2CCCC2)cc1` (centres undefined), which Potency is on record?
Its Potency is “inactive”.

With `C=CCc1ccccc1OCC(O)CN(CC)CC` (centres undefined) as the compound, how does the Potency read?
Its Potency is inconclusive [activator, partial curve, poor fit].

For `COc1cccc(C(=O)c2c[nH]c(C(=O)NCCCN3CCOCC3)c2)c1`, which Potency is on record?
Its Potency is “inactive”.

For `CN(Cc1ccccc1F)C(=O)c1ccccc1Sc1ccccc1C#N`, which Potency is on record?
Its Potency is “inactive”.

Which Potency does the source give for `Cc1ccc(-n2cccc2/C=C2/C(=N)N3C(=NC2=O)SN=C3S(C)(=O)=O)cc1` here?
The Potency was active: 16.4 µM.

For `COc1cc(CN2CCN(c3cccc(Cl)c3)CC2)cc(OC)c1OC`, which Potency is on record?
Its Potency is active: 16.4 µM.

With `Cc1cccc2c1NC1(CCCC1)CC2C` (centres undefined) as the compound, how does the Potency read?
Its Potency is inconclusive [activator, single point].

Which Potency does the source give for `O=C(/C=C/c1ccco1)N1CCCC(c2ccccc2)C1` (centres undefined) here?
Its Potency is inconclusive [activator, partial curve, poor fit].

Which Potency does the source give for `COc1ccc(/C=C/C(=O)c2c(O)c(OC)c3occc3c2OC)cc1` here?
Its Potency is inconclusive [activator, single point].

With `CCc1nnc(N/N=C/c2ccc(O)c(OC)c2)n1N` as the compound, how does the Potency read?
Its Potency is inconclusive [activator, single point].

With `CCn1c(=O)c(C(=O)NCc2ccccc2Cl)c(O)c2ccccc21` as the compound, how does the Potency read?
The Potency was inconclusive [activator, partial curve, poor fit].

With `COCCNc1nc(-c2cc(-c3ccc(Cl)cc3)on2)cc(C(C)C)n1` as the compound, how does the Potency read?
The Potency was inconclusive [activator, partial curve, poor fit].

— PubChem BioAssay AID624296 (National Center for Advancing Translational Sciences (NCATS), 2012)
